Assay results reported in the supplement of paper PMC12067093, “Discovery and optimisation of a covalent ligand for TRIM25 and its application to targeted protein ubiquitination” (Chemical Science, 2025).
Of roughly 21,000 targets only a part is listed; those with the largest changes were picked by preference.

Compound: Cc1cc(ccc1-c1ccccc1)C(=O)N1CCCN(CC1)C(=O)CCl [compound 10]
Test: probe-labelled cysteine peptide fold change vs DMSO (competition) (log2 fold change); higher = less target engagement (more negative = stronger competition)
Conditions: THP-1, incubation time: 4 h
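Further: competitive profiling in live THP-1 cells: cysteine peptides tagged with an iodoacetamide desthiobiotin (IA-DTB) probe, intensity after compound treatment relative to DMSO-treated cells.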

ALOX5_P09917_265_LPVTTEMVECSLER (UniProt P09917)
probe-labelled cysteine peptide fold change (10 µM): -0.0333
probe-labelled cysteine peptide fold change (50 µM): -0.0162

ARAP1_Q96P48_38_ALHLEQYTGLFEQHGLVWATECQGLSDTR (UniProt Q96P48)
probe-labelled cysteine peptide fold change (10 µM): 0.171
probe-labelled cysteine peptide fold change (50 µM): 0.379

ANKRD16_Q6P6B7_322_SALHLACAGQHLACAK (UniProt Q6P6B7)
probe-labelled cysteine peptide fold change (10 µM): 0.137
probe-labelled cysteine peptide fold change (50 µM): -0.262

AIP_O00170_121_HCCGVAQMR (UniProt O00170)
Chain of UniProt O00170 (O00170 whole entry, looked up): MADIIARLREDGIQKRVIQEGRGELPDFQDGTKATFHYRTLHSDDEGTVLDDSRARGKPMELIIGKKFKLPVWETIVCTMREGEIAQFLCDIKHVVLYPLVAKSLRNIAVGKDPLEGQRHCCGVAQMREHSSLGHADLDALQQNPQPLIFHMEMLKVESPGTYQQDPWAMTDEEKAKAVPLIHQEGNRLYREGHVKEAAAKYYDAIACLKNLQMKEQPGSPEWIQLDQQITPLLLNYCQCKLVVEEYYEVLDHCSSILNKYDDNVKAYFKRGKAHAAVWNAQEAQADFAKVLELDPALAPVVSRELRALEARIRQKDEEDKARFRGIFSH
probe-labelled cysteine peptide fold change (10 µM): -0.297
probe-labelled cysteine peptide fold change (50 µM): -1.08

ARHGEF1_Q92888_815_ILSDLLPFCRPGPEGQLAATALR (UniProt Q92888)
Chain of UniProt Q92888 (Q92888 whole entry, looked up): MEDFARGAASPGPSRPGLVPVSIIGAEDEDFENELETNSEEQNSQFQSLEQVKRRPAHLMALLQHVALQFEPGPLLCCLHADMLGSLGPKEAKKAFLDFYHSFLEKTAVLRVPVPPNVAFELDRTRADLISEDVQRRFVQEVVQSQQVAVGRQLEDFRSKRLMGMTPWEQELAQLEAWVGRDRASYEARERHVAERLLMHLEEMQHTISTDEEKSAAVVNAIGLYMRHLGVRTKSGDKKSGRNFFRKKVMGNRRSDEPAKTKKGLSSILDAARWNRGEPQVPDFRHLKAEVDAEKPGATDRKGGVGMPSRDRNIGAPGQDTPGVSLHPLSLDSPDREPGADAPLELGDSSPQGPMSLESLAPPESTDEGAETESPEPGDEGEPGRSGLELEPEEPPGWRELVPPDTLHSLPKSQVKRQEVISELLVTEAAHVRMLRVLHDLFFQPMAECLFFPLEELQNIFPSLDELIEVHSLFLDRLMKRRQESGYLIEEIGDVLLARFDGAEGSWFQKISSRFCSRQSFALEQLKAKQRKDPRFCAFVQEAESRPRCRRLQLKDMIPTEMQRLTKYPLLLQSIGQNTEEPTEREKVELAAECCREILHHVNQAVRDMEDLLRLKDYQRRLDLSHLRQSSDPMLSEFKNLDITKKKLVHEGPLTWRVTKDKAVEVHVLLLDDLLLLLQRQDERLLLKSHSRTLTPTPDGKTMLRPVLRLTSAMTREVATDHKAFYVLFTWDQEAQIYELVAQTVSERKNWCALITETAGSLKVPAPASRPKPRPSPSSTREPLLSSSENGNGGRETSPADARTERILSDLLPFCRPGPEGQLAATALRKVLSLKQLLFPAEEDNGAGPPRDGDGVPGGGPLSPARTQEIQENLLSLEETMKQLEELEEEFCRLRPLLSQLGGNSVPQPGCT
probe-labelled cysteine peptide fold change (10 µM): 0.0869
probe-labelled cysteine peptide fold change (50 µM): -0.225

ATP6V1C1_P21283_376_IDCNLLEFK (UniProt P21283)
Chain of UniProt P21283 (P21283 whole entry, looked up): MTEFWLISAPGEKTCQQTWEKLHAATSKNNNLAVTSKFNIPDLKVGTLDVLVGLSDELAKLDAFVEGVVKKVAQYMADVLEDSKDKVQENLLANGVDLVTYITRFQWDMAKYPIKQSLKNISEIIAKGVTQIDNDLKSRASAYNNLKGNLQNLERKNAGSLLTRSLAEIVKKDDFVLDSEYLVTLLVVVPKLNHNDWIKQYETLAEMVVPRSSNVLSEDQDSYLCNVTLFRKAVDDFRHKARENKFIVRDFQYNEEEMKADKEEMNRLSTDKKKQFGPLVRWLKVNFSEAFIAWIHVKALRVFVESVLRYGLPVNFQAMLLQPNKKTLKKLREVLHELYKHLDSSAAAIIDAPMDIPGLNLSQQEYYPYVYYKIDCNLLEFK
probe-labelled cysteine peptide fold change (10 µM): 0.13
probe-labelled cysteine peptide fold change (50 µM): -0.137

ARHGEF6_Q15052_514_LDEIEGNDCTFEITGNTVER (UniProt Q15052)
probe-labelled cysteine peptide fold change (10 µM): -0.0529
probe-labelled cysteine peptide fold change (50 µM): 0.147

ASH2L_Q9UBL3_362_YILAEPDPHAPDPEKLELDCWAGKPIPGDLYR (UniProt Q9UBL3)
probe-labelled cysteine peptide fold change (10 µM): -0.239
probe-labelled cysteine peptide fold change (50 µM): -0.486

ANKRD44_Q8N8A2_834_FIGNPFTPLHCAIINDHGNCASLLLGAIDSSIVSCRDDK (UniProt Q8N8A2)
probe-labelled cysteine peptide fold change (10 µM): -0.206
probe-labelled cysteine peptide fold change (50 µM): -0.433

AP2A2_O94973_134_NPTFMGLALHCIASVGSR (UniProt O94973)
Chain of UniProt O94973 (O94973 whole entry, looked up): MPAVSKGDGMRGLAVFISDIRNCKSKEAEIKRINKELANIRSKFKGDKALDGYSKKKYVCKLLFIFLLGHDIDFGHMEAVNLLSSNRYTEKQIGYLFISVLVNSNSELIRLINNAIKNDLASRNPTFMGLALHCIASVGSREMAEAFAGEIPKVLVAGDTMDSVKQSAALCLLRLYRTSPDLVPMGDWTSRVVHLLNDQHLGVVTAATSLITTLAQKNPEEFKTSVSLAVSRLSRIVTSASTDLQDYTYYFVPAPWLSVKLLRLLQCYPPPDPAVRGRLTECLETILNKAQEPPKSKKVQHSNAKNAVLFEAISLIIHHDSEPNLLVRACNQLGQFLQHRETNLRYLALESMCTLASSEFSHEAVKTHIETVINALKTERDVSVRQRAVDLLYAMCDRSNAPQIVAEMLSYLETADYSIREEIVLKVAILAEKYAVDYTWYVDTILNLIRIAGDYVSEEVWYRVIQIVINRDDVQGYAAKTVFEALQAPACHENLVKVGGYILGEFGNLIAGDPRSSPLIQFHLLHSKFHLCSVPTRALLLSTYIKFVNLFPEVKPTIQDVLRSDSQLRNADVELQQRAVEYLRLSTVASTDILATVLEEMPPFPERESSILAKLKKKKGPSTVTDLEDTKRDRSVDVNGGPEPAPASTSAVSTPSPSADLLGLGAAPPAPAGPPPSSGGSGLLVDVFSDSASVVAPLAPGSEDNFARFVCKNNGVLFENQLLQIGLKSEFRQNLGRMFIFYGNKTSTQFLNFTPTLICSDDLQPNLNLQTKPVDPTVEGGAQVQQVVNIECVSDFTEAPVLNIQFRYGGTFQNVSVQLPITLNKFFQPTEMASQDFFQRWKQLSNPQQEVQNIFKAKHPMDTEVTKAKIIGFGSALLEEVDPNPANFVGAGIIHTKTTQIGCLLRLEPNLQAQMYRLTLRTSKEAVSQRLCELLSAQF
probe-labelled cysteine peptide fold change (10 µM): 0.176
probe-labelled cysteine peptide fold change (50 µM): 0.278

APP_P05067_144_MDVCETHLHWHTVAK (UniProt P05067)
Chain of UniProt P05067 (P05067 whole entry, looked up): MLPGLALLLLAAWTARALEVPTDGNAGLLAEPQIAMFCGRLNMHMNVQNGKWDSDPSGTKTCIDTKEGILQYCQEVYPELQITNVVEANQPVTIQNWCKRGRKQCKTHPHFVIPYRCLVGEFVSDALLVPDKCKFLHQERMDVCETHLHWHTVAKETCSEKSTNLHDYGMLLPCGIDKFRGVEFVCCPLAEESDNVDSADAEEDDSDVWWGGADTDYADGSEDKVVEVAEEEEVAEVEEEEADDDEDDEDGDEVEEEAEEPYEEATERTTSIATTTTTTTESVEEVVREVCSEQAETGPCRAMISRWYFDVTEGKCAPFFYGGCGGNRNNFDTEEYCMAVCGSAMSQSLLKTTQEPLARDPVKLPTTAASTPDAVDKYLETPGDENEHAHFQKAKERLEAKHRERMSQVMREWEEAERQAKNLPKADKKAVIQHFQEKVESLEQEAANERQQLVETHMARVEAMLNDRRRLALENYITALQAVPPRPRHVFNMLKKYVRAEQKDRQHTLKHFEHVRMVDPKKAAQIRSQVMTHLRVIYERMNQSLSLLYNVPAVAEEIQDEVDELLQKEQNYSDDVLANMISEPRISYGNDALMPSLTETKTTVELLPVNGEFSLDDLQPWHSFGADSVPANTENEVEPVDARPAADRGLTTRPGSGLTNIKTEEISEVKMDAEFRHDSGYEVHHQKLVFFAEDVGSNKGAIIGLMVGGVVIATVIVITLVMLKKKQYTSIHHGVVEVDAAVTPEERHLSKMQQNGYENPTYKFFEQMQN
probe-labelled cysteine peptide fold change (10 µM): -0.354
probe-labelled cysteine peptide fold change (50 µM): -0.411

ARMC8_Q8IUR7_168_YTQEYICQIFSHCCK (UniProt Q8IUR7)
probe-labelled cysteine peptide fold change (10 µM): 0.103
probe-labelled cysteine peptide fold change (50 µM): 0.182

ACSL4_O60488_157_NTIAIFCETR (UniProt O60488)
Chain of UniProt O60488 (O60488 whole entry, looked up): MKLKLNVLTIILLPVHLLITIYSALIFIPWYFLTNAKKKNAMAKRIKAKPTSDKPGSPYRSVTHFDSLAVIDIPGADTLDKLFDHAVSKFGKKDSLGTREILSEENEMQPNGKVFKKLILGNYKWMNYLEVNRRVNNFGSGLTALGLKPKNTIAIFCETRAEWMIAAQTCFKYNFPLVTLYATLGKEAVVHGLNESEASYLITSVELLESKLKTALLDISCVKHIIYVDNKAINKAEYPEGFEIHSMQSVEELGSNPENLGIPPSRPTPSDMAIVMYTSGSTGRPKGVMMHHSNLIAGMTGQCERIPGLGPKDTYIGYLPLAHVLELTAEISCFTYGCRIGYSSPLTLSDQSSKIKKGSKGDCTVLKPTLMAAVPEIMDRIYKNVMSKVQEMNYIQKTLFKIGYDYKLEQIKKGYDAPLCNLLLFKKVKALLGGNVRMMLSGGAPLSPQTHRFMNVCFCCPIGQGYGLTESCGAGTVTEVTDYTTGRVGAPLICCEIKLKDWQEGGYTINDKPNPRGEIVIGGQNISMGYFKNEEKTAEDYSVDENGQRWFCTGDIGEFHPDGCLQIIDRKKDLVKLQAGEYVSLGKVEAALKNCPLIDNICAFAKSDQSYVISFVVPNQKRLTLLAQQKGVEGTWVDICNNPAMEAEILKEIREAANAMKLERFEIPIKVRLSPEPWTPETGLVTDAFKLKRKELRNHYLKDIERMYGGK
probe-labelled cysteine peptide fold change (10 µM): -0.31
probe-labelled cysteine peptide fold change (50 µM): 0.409

ADAR_P55265_630_LGNSCEFR (UniProt P55265)
probe-labelled cysteine peptide fold change (10 µM): 0.0378
probe-labelled cysteine peptide fold change (50 µM): -0.188

APAF1_O14727_426_SLLFCDR (UniProt O14727)
probe-labelled cysteine peptide fold change (10 µM): 0.0119
probe-labelled cysteine peptide fold change (50 µM): 0.128

ANKRD44_Q8N8A2_649_TPLHASVINGHTLCLR (UniProt Q8N8A2)
probe-labelled cysteine peptide fold change (10 µM): 0.0181
probe-labelled cysteine peptide fold change (50 µM): -0.0467

ACTG1_P63261_17_EEEIAALVIDNGSGMCK (UniProt P63261)
probe-labelled cysteine peptide fold change (10 µM): -0.512
probe-labelled cysteine peptide fold change (50 µM): -0.551

ATP6V1B2_P21281_112_KTSCEFTGDILR (UniProt P21281)
probe-labelled cysteine peptide fold change (10 µM): -0.0255
probe-labelled cysteine peptide fold change (50 µM): -0.0641

ANXA4_P09525_315_VLLVLCGGDD (UniProt P09525)
probe-labelled cysteine peptide fold change (10 µM): 0.12
probe-labelled cysteine peptide fold change (50 µM): 0.243

ADO_Q96SZ5_183_SRAEYTEASGPCILTPHR (UniProt Q96SZ5)
probe-labelled cysteine peptide fold change (10 µM): 0.0932
probe-labelled cysteine peptide fold change (50 µM): 0.23

ANKRD27_Q96NW4_112_EESFSILCIAHPLEK (UniProt Q96NW4)
probe-labelled cysteine peptide fold change (10 µM): 0.198
probe-labelled cysteine peptide fold change (50 µM): 0.0449

ATF7IP2_Q5U623_220_QSDNILCSEDSGFVPVEK (UniProt Q5U623)
probe-labelled cysteine peptide fold change (10 µM): -0.257
probe-labelled cysteine peptide fold change (50 µM): 0.0575

APEH_P13798_312_LSPDQCR (UniProt P13798)
probe-labelled cysteine peptide fold change (10 µM): -0.0871
probe-labelled cysteine peptide fold change (50 µM): -0.181

ACTR5_Q9H9F9_265_CPDYYENNVHK (UniProt Q9H9F9)
probe-labelled cysteine peptide fold change (10 µM): -0.295
probe-labelled cysteine peptide fold change (50 µM): -1.35

ARHGAP1_Q07960_91_KIIVFSACR (UniProt Q07960)
probe-labelled cysteine peptide fold change (10 µM): -0.157
probe-labelled cysteine peptide fold change (50 µM): -0.255

ACSL1_P33121_297_NIVSDCSAFVK (UniProt P33121)
probe-labelled cysteine peptide fold change (10 µM): -0.0463
probe-labelled cysteine peptide fold change (50 µM): -0.0348

ALDH1L1_O75891_707_GENCIAAGR (UniProt O75891)
probe-labelled cysteine peptide fold change (10 µM): -1.08
probe-labelled cysteine peptide fold change (50 µM): -1.51

ATP6V0A2_Q9Y487_323_CLIAEVWCPEADLQDLRR (UniProt Q9Y487)
Chain of UniProt Q9Y487 (Q9Y487 whole entry, looked up): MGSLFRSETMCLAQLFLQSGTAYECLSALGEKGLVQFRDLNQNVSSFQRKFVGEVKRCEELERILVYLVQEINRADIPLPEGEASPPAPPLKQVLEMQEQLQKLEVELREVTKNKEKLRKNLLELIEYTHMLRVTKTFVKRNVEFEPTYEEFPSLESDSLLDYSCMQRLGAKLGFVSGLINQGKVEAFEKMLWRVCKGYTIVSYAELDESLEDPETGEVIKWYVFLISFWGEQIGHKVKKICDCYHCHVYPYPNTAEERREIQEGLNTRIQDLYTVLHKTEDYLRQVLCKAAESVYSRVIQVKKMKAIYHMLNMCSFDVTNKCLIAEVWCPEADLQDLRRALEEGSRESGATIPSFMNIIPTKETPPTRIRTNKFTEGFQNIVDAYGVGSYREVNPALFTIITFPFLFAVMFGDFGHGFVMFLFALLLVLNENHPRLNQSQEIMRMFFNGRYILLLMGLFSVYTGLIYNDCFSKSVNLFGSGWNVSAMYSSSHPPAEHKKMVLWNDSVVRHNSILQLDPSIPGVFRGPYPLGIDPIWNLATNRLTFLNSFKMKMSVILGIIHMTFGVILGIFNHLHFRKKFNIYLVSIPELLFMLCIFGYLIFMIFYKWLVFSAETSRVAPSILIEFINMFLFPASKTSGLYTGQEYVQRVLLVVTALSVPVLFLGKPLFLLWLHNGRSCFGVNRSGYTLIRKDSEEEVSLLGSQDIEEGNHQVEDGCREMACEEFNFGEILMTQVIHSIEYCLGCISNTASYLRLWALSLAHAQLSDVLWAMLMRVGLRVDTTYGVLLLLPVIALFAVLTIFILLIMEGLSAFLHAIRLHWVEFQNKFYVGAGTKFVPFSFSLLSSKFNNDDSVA
probe-labelled cysteine peptide fold change (10 µM): 0.171
probe-labelled cysteine peptide fold change (50 µM): 0.137

ANKRD28_O15084_387_GIHGMFPLHLAALSGFSDCCR (UniProt O15084)
probe-labelled cysteine peptide fold change (10 µM): 0.142
probe-labelled cysteine peptide fold change (50 µM): 0.103

AGL_P35573_957_NDLGHPFCNNLR (UniProt P35573)
probe-labelled cysteine peptide fold change (10 µM): 0.0681
probe-labelled cysteine peptide fold change (50 µM): 0.0491

ACSL5_Q9ULC5_121_AEYLGSCLLHK (UniProt Q9ULC5)
probe-labelled cysteine peptide fold change (10 µM): -0.0755
probe-labelled cysteine peptide fold change (50 µM): 0.0449
